This is one part of the list. Values were computed here from the reads of four pooled replicates and scatter widely.

The assay has as its target T1, Pho4 (S. cerevisiae) (UniProt P07270).
T1 sequence: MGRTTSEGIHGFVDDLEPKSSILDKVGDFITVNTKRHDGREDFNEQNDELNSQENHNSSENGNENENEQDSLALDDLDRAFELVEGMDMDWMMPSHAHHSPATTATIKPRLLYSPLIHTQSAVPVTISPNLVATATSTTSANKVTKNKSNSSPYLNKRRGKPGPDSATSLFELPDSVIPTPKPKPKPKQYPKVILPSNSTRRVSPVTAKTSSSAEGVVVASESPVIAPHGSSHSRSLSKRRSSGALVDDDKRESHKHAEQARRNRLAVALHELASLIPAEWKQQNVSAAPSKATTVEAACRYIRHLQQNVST
In words: relative binding free energy (BET-seq); higher = weaker binding. The settings on record: reference: library average.
As for TTAGGCACGTGTGTAA, the “relative binding free energy” value was -0.01 kcal/mol. For TAATTCACGTGGATCG, the “relative binding free energy” value is 0.3 kcal/mol. As to GAGTCCACGTGTGATT, the “relative binding free energy” value came out at 0.37 kcal/mol.

For the sequence AGGGTCACGTGTGGCT, the “relative binding free energy” value was 0.18 kcal/mol. For the sequence GTTGTCACGTGCTGCG, the “relative binding free energy” value stood at 0.11 kcal/mol. In the case of AAGTACACGTGTGGTA, the “relative binding free energy” value worked out at 0.16 kcal/mol. As for TATGACACGTGGGTGC, the “relative binding free energy” value is -0.1 kcal/mol. In the case of TAGAGCACGTGGTTTG it was -0.11 kcal/mol; in that of ATTGCCACGTGAGTGT, 0.01 kcal/mol; in that of AAGGTCACGTGGGTTG, -0.04 kcal/mol. In the case of TTTCGCACGTGCGGTT, the “relative binding free energy” value is -0.1 kcal/mol. Take ATTCTCACGTGAAAGT: the “relative binding free energy” value was determined as 0.5 kcal/mol. As to GGTGGCACGTGGATAG, the “relative binding free energy” value was found to be 0.12 kcal/mol. For TGTTGCACGTGGGGTT the value was -0.08 kcal/mol. In the case of AAGGCCACGTGATGGG it was 0.07 kcal/mol; in that of AGGGTCACGTGGGATA, -0.14 kcal/mol. For the sequence GAGGCCACGTGGTAGT, the “relative binding free energy” value was -0.06 kcal/mol. In the case of GAGCACACGTGGTGAG, the “relative binding free energy” value came out at 0.16 kcal/mol.

Regarding TGAGTCACGTGGATGA, the “relative binding free energy” value turned out to be 0.05 kcal/mol.

Take ATTACCACGTGTGTTG: the “relative binding free energy” value is -0.08 kcal/mol. For TCGTTCACGTGGTGGT, the “relative binding free energy” value turned out to be 0.3 kcal/mol. GGTATCACGTGGCTAG: the “relative binding free energy” value is 0.08 kcal/mol. On to GAGTTCACGTGTTGGG, for which the “relative binding free energy” value stood at 0.4 kcal/mol. As to TGAGTCACGTGATTAG, the “relative binding free energy” value is 0.22 kcal/mol. CGGTTCACGTGGGTAA: the “relative binding free energy” value stood at 0.17 kcal/mol. With GAATTCACGTGGGTGG, the “relative binding free energy” value came out at 0.24 kcal/mol. As to TGATACACGTGCTGTA, the “relative binding free energy” value worked out at 0.21 kcal/mol.

Regarding GGAATCACGTGTTAGT, the “relative binding free energy” value was 0.3 kcal/mol. Regarding TTTTGCACGTGTAAGA, the “relative binding free energy” value is 0.09 kcal/mol. With TACATCACGTGGTTAT, the “relative binding free energy” value came out at 0.17 kcal/mol. Consider TGGCGCACGTGCATGG, for which the “relative binding free energy” value is -0.03 kcal/mol. As to AGGTCCACGTGGTTCG, the “relative binding free energy” value came to 0.03 kcal/mol.

As to GTTTCCACGTGTTGTG, the “relative binding free energy” value is 0.18 kcal/mol.

On to TTGGACACGTGGTTTC, for which the “relative binding free energy” value is 0.14 kcal/mol. With ATATGCACGTGGGGGA, the “relative binding free energy” value is -0.21 kcal/mol. Take AAGTACACGTGGATAG: the “relative binding free energy” value is 0.14 kcal/mol. Consider ATGGACACGTGTGAAG, for which the “relative binding free energy” value was determined as 0.2 kcal/mol. For TTAGACACGTGCGTGA, the “relative binding free energy” value was -0.01 kcal/mol. On to ACTGTCACGTGGGTGA, for which the “relative binding free energy” value turned out to be 0.03 kcal/mol. For GTGTGCACGTGTCGAG the value was -0.02 kcal/mol. CTTGACACGTGAGTAG: the “relative binding free energy” value was found to be 0.26 kcal/mol. Take TCAGTCACGTGTGTTA: the “relative binding free energy” value amounted to 0.12 kcal/mol. With AGTAGCACGTGAGTAA, the “relative binding free energy” value was 0.18 kcal/mol. For AAGCTCACGTGGGCGT the value was 0.17 kcal/mol; for GTTCACACGTGTAAGT, 0.22 kcal/mol; for TACTTCACGTGTTAAT, 0.28 kcal/mol. For TGGAACACGTGGCTTG the value was -0.01 kcal/mol; for GGTCGCACGTGGGAGA, -0.06 kcal/mol; for TGACGCACGTGATTTG, 0 kcal/mol. Regarding GCGGTCACGTGGTGGA, the “relative binding free energy” value came out at 0.14 kcal/mol.

Take GGGCGCACGTGTGGGA: the “relative binding free energy” value was -0.06 kcal/mol.

In the case of TTGTTCACGTGTTCTG, the “relative binding free energy” value amounted to 0.18 kcal/mol. AATGGCACGTGGATGA: the “relative binding free energy” value is 0.03 kcal/mol. For the sequence TGTTGCACGTGTAAAT, the “relative binding free energy” value amounted to 0.21 kcal/mol. Take AGGTGCACGTGGCTAG: the “relative binding free energy” value is -0.14 kcal/mol. For GGTGTCACGTGATTAC, the “relative binding free energy” value was found to be 0.24 kcal/mol.

For TTATGCACGTGAAGGT, the “relative binding free energy” value came to 0.13 kcal/mol. With TGTCGCACGTGTTGCT, the “relative binding free energy” value is -0.09 kcal/mol.

For the sequence AGAGCCACGTGGTAGT, the “relative binding free energy” value was -0.22 kcal/mol. As for GATGGCACGTGGCTTG, the “relative binding free energy” value is -0.13 kcal/mol.

On to GCGGACACGTGGTGGA, for which the “relative binding free energy” value worked out at 0.06 kcal/mol. With TTAGTCACGTGGAAGA, the “relative binding free energy” value is 0.06 kcal/mol. In the case of TTATTCACGTGTGGGT it was 0.24 kcal/mol.

The values are drawn from the BET-seq Pho4 binding data (Le et al. 2018).
